Source: PMC7507369
These are yes or no findings as the source states them, for the method shown. Binding seen in cells or lysates may run through a third protein. Some results given as binding are weak or reduced against the parent protein; the word gives no strength. Sequences can lack the tags named with a protein.

By UniProt entry, the sequences of proteins in these tests, tags left out. Residues count along the entry.
UniProt O15455, residues 24-904: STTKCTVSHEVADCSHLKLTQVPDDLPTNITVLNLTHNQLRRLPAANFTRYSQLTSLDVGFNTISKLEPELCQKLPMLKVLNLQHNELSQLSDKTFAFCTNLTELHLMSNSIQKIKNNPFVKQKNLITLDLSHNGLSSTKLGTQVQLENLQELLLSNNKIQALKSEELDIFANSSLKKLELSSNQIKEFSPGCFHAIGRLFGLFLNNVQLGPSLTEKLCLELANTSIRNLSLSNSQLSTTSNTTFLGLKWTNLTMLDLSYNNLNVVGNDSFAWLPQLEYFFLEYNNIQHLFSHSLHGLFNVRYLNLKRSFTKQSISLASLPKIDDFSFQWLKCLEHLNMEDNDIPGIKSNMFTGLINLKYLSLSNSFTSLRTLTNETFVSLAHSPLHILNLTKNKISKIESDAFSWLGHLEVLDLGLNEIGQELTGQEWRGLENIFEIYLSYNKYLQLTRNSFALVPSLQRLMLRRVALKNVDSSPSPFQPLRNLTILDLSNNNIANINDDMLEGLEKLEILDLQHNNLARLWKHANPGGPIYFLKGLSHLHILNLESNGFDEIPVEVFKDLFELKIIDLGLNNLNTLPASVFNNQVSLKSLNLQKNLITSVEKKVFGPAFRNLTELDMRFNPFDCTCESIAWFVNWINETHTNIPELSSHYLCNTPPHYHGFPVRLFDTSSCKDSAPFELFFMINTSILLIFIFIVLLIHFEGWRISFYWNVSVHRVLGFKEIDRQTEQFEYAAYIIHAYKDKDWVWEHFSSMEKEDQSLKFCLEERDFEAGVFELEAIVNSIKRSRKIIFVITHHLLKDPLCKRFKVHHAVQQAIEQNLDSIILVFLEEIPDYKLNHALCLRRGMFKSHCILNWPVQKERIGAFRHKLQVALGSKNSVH

Legend:
GST-IRGM (human) = molecular target: T1, GST-IRGM (human) (UniProt A1A4Y4); experiment: pull-down; GST or GST-IRGM on Glutathione Sepharose beads incubated with in vitro translated [35S]-labeled Myc-tagged proteins; NETN-E buffer (50 mM Tris pH 8.0, 100 mM NaCl, 6 mM EDTA, 6 mM EGTA, 0.5% NP-40, 1 mM DTT), 2 h at 4°C; autoradiography; only the target purified
T1 sequence: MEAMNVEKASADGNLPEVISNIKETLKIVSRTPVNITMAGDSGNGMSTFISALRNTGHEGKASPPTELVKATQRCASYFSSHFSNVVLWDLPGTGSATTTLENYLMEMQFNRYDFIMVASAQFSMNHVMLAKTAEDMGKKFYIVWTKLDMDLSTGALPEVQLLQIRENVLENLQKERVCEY

Flag-cGAS = Flag-cGAS (UniProt Q8N884); experiment: co-IP; GFP-IRGM and Flag-tagged proteins overexpressed in HEK293T, cell lysates; NP-40 lysis buffer, protein G dynabeads, 4°C; reverse co-IPs too; for cGAS, RIG-I and TLR3 also in control siRNA or p62 siRNA transfected cells
Flag-TLR3 = Flag-TLR3 (UniProt O15455); experiment: as above
Flag-RIG-I = molecular target: T2, Flag-RIG-I (UniProt O95786); experiment: as above
T2 sequence: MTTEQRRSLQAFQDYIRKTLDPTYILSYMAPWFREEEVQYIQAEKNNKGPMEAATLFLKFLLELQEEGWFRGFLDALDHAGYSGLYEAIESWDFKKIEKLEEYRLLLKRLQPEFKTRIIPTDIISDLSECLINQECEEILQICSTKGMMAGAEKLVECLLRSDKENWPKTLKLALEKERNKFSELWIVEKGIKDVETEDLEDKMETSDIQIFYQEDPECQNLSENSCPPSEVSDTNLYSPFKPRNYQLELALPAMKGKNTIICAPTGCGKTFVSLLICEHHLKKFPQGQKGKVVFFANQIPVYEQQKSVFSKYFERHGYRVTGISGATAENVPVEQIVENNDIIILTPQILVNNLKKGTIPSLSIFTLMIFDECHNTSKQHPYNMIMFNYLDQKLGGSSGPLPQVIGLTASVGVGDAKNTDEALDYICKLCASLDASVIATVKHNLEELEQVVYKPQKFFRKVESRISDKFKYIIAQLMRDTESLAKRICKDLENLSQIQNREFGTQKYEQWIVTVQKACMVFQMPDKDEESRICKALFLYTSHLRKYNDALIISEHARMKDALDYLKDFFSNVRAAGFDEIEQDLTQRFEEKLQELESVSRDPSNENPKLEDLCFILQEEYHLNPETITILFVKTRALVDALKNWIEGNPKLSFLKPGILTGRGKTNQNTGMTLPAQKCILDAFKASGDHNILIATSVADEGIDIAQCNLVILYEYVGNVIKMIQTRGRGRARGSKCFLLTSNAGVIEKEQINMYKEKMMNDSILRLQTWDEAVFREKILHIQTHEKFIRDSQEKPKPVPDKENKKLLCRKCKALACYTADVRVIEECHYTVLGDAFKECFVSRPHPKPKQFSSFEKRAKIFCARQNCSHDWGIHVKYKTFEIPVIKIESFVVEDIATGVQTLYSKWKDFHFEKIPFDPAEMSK

HA-p62 = HA-p62 (UniProt Q13501); experiment: co-IP; HA-p62 and Flag-tagged RIG-I, TLR3 or cGAS in the absence and presence of GFP or GFP-IRGM, HEK293T cell lysates; p62 immunoprecipitated
HA-p62, Q13501 = experiment: as above; conditions: remark: other sources report otherwise

B1: Myc-RIG-I, in vitro translated (protein, UniProt O95786 1-925)
chain: T2 sequence
modifications: [35S]-labeled
For B1, which binding (GST-IRGM (human)) is on record?
The binding was “binds weakly”.

B2: GFP-IRGM (protein, UniProt A1A4Y4 1-181)
chain: T1 sequence
Which results are given for B2?
binding (Flag-cGAS): binds; binding (Flag-TLR3): binds; binding (Flag-RIG-I): binds; binding (HA-p62): binds

B3: Flag-cGAS, Q8N884 1-522 (protein)
chain: MQPWHGKAMQRASEAGATAPKASARNARGAPMDPTESPAAPEAALPKAGKFGPARKSGSRQKKSAPDTQERPPVRATGARAKKAPQRAQDTQPSDATSAPGAEGLEPPAAREPALSRAGSCRQRGARCSTKPRPPPGPWDVPSPGLPVSAPILVRRDAAPGASKLRAVLEKLKLSRDDISTAAGMVKGVVDHLLLRLKCDSAFRGVGLLNTGSYYEHVKISAPNEFDVMFKLEVPRIQLEEYSNTRAYYFVKFKRNPKENPLSQFLEGEILSASKMLSKFRKIIKEEINDIKDTDVIMKRKRGGSPAVTLLISEKISVDITLALESKSSWPASTQEGLRIQNWLSAKVRKQLRLKPFYLVPKHAKEGNGFQEETWRLSFSHIEKEILNNHGKSKTCCENKEEKCCRKDCLKLMKYLLEQLKERFKDKKHLDKFSSYHVKTAFFHVCTQNPQDSQWDRKDLGLCFDNCVTYFLQCLRTEKLENYFIPEFNLFSSNLIDKRSKEFLTKQIEYERNNEFPVFDEF
For B3, which binding (HA-p62, Q13501) is on record?
The binding was “binds”.
